Measured values as given in US11000038B2, “Pyridone compounds and agricultural and horticultural fungicides containing the same as active ingredients” (priority 2017, dated 2021).
Like-named read-outs stand apart in the source and are kept apart here.

Assays:
[1] = system: cucumber anthracnose fungi (Colletotrichum orbiculare); assay: Test Example H: cucumber anthracnose, spray treatment of cucumber plants; conditions: for Test H control value: cucumber anthracnose, 6 to 10 days after inoculation; for Test H control value class (cucumber anthracnose): 2.5 ml/pot, cucumber Sagami Hanjiro, 6 to 10 days from inoculation
[2] = system: tomato late blight fungi (Phytophthora infestans); format: in vivo; conditions: for Test F control value: tomato late blight; for Test F control value class (tomato late blight): control value=100{1-(n/3)}
[3] = system: rice blast fungi (Magnaporthe grisea); format: in vivo; conditions: for Test A control value: rice blast; for Test A control value class (rice blast): control value=100{1-(n/3)}
[4] = spray treatment of tomato plants

| Compound | Test H control value class (cucumber anthracnose) ([1]; 250 ppm spray) | Test F control value class (tomato late blight) [2, 4] | Test A control value class (rice blast) ([3]; spray treatment of rice plants) | Test H control value ([1]; 250 ppm spray) | Test F control value ([2]; spray treatment) | Test A control value ([3]; spray treatment) | also measured |
| --- | --- | --- | --- | --- | --- | --- | --- |
| COc1ccc(Cn2cc(C)c(=O)c(C)c2-c2c(F)cc(F)cc2F)c(OC)c1 [Compound 246] | – | – | – | – | – | – | Test H control value ([1]; 250 ppm spray (2.5 ml/pot)): L (L shows the control value of 50% or less); Test F control value [2, 4]: L (L shows the control value of 50% or less); Test A control value ([3]; spray treatment of rice plants): H (H shows the control value of more than 50%) |
| COc1cc(F)c(-c2c(Cl)c(=O)c(Cl)cn2C(C)C(C)C)c(F)c1 (stereo not drawn) [Compound 52] | H (H shows the control value of more than 50%) | L (L shows the control value of 50% or less) | H (H shows the control value of more than 50%) | – | – | – | – |
| COCOc1ccc(C)c(-n2cc(Br)c(=O)c(Cl)c2-c2c(F)cc(F)cc2F)c1 [Compound 285, 5-bromo-3-chloro-1-(5-(methoxymethoxy)-2-methylphenyl)-2-(2,4,6-trifluorophenyl)pyridin-4(1H)-one] | – | – | – | – | – | – | Test H control value ([1]; 250 ppm spray (2.5 ml/pot)): H (H shows the control value of more than 50%); Test F control value [2, 4]: L (L shows the control value of 50% or less); Test A control value ([3]; spray treatment of rice plants): H (H shows the control value of more than 50%) |
| O=c1c(Cl)cn(CC(F)F)c(-c2c(F)cc(F)cc2F)c1Br [Compound 161] | L (L shows the control value of 50% or less) | L (L shows the control value of 50% or less) | L (L shows the control value of 50% or less) | – | – | – | – |
| COc1cc(F)c(-c2c(Cl)c(=O)c(Cl)cn2-c2ccccc2)c(F)c1 [Compound 16] | H (H shows the control value of more than 50%) | L (L shows the control value of 50% or less) | H (H shows the control value of more than 50%) | – | – | – | – |
| O=c1c(Br)cn(-c2ccccc2)c(-c2ccccc2F)c1Br [Compound 468] | – | – | – | L (L shows the control value of 50% or less) | L (L shows the control value of 50% or less) | H (H shows the control value of more than 50%) | – |
| Cc1cc(-n2cc(Br)c(=O)c(Br)c2-c2c(F)cc(F)cc2F)no1 [Compound 146] | L (L shows the control value of 50% or less) | L (L shows the control value of 50% or less) | H (H shows the control value of more than 50%) | – | – | – | – |
| Cc1ccc(F)cc1-n1cc(Br)c(=O)c(Cl)c1-c1c(F)cccc1F [Compound 457] | – | – | – | H (H shows the control value of more than 50%) | L (L shows the control value of 50% or less) | L (L shows the control value of 50% or less) | – |
| Cc1ccc(C)c(-n2cc(Br)c(=O)c(Br)c2-c2ccccc2)c1 [Compound 460] | – | – | – | L (L shows the control value of 50% or less) | L (L shows the control value of 50% or less) | H (H shows the control value of more than 50%) | – |
| COc1cc(F)c(-c2c(C)c(=O)c(C)cn2-c2cccc(F)c2C)c(F)c1 [Compound 440] | – | – | – | H (H shows the control value of more than 50%) | L (L shows the control value of 50% or less) | H (H shows the control value of more than 50%) | – |
| CCc1c(-c2ccccc2)n(-c2cccc(F)c2C)cc(Br)c1=O [Compound 505] | – | – | – | H (H shows the control value of more than 50%) | L (L shows the control value of 50% or less) | L (L shows the control value of 50% or less) | – |
| O=c1c(Br)cn(CC2CCCCC2)c(-c2c(F)cc(F)cc2F)c1Cl [Compound 124] | L (L shows the control value of 50% or less) | L (L shows the control value of 50% or less) | H (H shows the control value of more than 50%) | – | – | – | – |
